This is one part of the list. At the low end of the ranking the order means little.
The sequences below were run against SIX1 homeodomain (reference allele) (UniProt Q15475) (assay: universal protein binding microarray). Settings: Universal all-10-mer PBM (8x60K, AMADID 030236), 300 nM GST-tagged protein, Alexa Fluor 488 anti-GST; buffer, salt, pH and temperature not stated; high values mean tight binding; most listed sequences are background and not binding sites; double strand, one strand shown.

Row | Sequence | binding signal [E-score]
1 | AGCATATA | 0.239
2 | CGAACTCA | -0.278
3 | CCGAAGCC | -0.181
4 | AGGAGACG | 0.134
5 | GCTAGACC | -0.134
6 | TAAGACCA | -0.229
7 | CGAGACAG | 0.102
8 | AAGGGAGC | -0.0418
9 | AATGGGGG | -0.159
10 | GTCCACGA | -0.275
11 | CCAGATTA | 0.252
12 | CCTCCTTA | 0.0197
13 | ATAATAAG | -0.00046
14 | AAACCCGA | 0.165
15 | GCAAACCC | 0.0308
16 | CTCTTATA | 0.111
17 | CGGTTCGA | 0.0543
18 | CCTGTTTC | -0.308
19 | CGTTATGA | 0.0286
20 | CCACAACG | -0.184
21 | ACGAAGCG | -0.178
22 | GAACCTAA | -0.112
23 | GCGTAGCC | -0.0945
24 | AGGCTACG | -0.125
25 | CATCCACA | 0.114

Row | Sequence | binding signal [E-score]
26 | CACATCAG | -0.0466
27 | CATCCCGG | 0.12
28 | CAGCCGAA | -0.275
29 | ATAAACCG | 0.146
30 | GCCTGATA | 0.321
31 | AGGCAAAT | -0.0847
32 | CGGATGCC | 0.214
33 | AATGGTGA | -0.0708
34 | GGTGCAAA | -0.0159
35 | AGGATACC | 0.457
36 | ATCGTCAC | 0.279
37 | CCAACCCG | -0.0882
38 | CACTATCC | 0.295
39 | AAATTCGT | 0.0418
40 | GCCTTAGA | 0.019
41 | TCTGACAA | -0.126
42 | ACCTCGGC | -0.17
43 | TGGAAACA | -0.253
44 | CCAAAAAA | -0.0793
45 | ATTTAGTA | 0.0206
46 | CAGTTCAA | -0.0212
47 | ACCTCGGG | -0.0956
48 | AGCTGTTA | -0.213
49 | AAACCTAT | 0.0286
50 | CAACGCAC | -0.0235

Row | Sequence | binding signal [E-score]
51 | AGATTCAA | -0.134
52 | AATCGGCT | 0.0832
53 | ACGTCTTC | 0.0167
54 | GAAAAATA | -0.0297
55 | AGGAGTGA | -0.0128
56 | AAGTACAG | -0.189
57 | CTATATTC | 0.0556
58 | CAGCCCAC | -0.25
59 | AAAACAAA | -0.235
60 | GAGCTACA | -0.126
61 | CAGGAGGG | 0.0468
62 | CTATTCTC | -0.00332
63 | CCATGGCA | -0.127
64 | ACGATGCT | -0.0228
65 | GGTTGACA | -0.192
66 | CCATACTC | 0.146
67 | TGTAGTAA | -0.0485
68 | CCCACCTA | 0.0935
69 | ATCACTTG | 0.29
70 | AGCCACCA | -0.0935
71 | CCTGGAGC | -0.137
72 | CGAATTCA | -0.00502
73 | CCTAGCCC | -0.103
74 | TAGGAGAA | -0.0721
75 | AGCTTTCG | -0.239

Row | Sequence | binding signal [E-score]
76 | GTTTGCGA | -0.04
77 | ACAAATGC | -0.0485
78 | ATGATTAG | -0.0616
79 | ACCCGGGA | 0.311
80 | AGGGTTTA | 0.0547
81 | CAATAGAG | -0.128
82 | ACTTCTTA | -0.0814
83 | CCCCGAAG | 0.128
84 | AGCCGTCA | -0.0998
85 | AATCCCGT | 0.127
86 | CAATGCAG | 0.144
87 | GCACATAC | -0.013
88 | TACTTTAA | -0.0232
89 | GAAGTTTA | -0.149
90 | AACGCGAC | -0.265
91 | GGTTACGA | -0.0664
92 | AATCAACA | 0.0609
93 | CACGTCGG | 0.0775
94 | CCGTTACA | -0.0616
95 | CTTTCTGC | -0.262
96 | AATTGCCG | -0.241
97 | CGAACGAC | -0.227
98 | AGAGTGTA | 0.223
99 | GGTGTTAA | 0.301
100 | GCGTGCCA | -0.176

Row | Sequence | binding signal [E-score]
101 | AACTCTGC | -0.224
102 | AGGACACG | 0.0726
103 | GTAAAGAC | -0.177
104 | CCCCCGCA | -0.0974
105 | ACGATTAA | 0.152
106 | ACCCGGCC | 0.0806
107 | CCACCATC | -0.0492
108 | ATGCCTTC | -0.0169
109 | TACGAACA | -0.0254
110 | CGGGCGGA | 0.0544
111 | CCCTGGAA | -0.0182
112 | ATGATGCG | 0.0353
113 | AATAGTAT | 0.251
114 | CCGCGCAG | -0.0678
115 | ACTTTTCG | -0.2
116 | ACGGATCT | 0.324
117 | CAGGGGAG | 0.136
118 | ACGAGTGC | -0.307
119 | AACATGGC | -0.2
120 | CAGGCTGG | -0.0958
121 | AATGAATA | 0.096
122 | CCTGAAAA | -0.268
123 | GCGATGGA | 0.0296
124 | AAGAATCA | -0.0908
125 | ACCCGTCA | -0.107

Row | Sequence | binding signal [E-score]
126 | CAAGATCA | 0.242
127 | AGCTGCGC | -0.0439
128 | TCTTGTCA | -0.158
129 | CCGTATCA | 0.486
130 | CGTCGAGA | -0.0141
131 | CCAGGACC | -0.107
132 | GTCCCTTA | -0.0102
133 | ATATACAG | 0.276
134 | AAAGACCT | -0.27
135 | CTCAGGGA | 0.112
136 | CTCCACAC | -0.0193
137 | ATGGGGTA | 0.163
138 | ACGTTTTC | -0.195
139 | CGTGTCAC | 0.196
140 | ACTACCTG | -0.169
141 | CCTGTAGA | 0.00761
142 | AGGGTATA | 0.407
143 | CCTAGACC | -0.0747
144 | AACGATAT | 0.408
145 | CTTACTTC | -0.133
146 | AGGGTGCA | -0.0169
147 | ACTCAGCC | -0.244
148 | AGCCGATG | 0.0858
149 | AGGTTAGG | -0.0245
150 | GTCGGGAA | -0.00536

Row | Sequence | binding signal [E-score]
151 | CAACACAG | -0.147
152 | TGATCCCA | 0.376
153 | CTTCTGAA | -0.0211
154 | ACCATGGT | 0.196
155 | CGCGCGTA | 0.0493
156 | ACCTAGAA | -0.0812
157 | ATCGCTCA | 0.192
158 | AACTAACG | -0.16
159 | AACATATA | 0.235
160 | AACCATGC | 0.0441
161 | CGATTGTA | 0.023
162 | CTAGGTGC | -0.0986
163 | CCTACGAG | -0.0354
164 | AATTCGAG | -0.153
165 | ACCAGAGC | -0.121
166 | AGATGTAC | -0.118
167 | GAGTCCCA | -0.219
168 | TCGAGCGA | -0.0916
169 | CGCCCCAC | 0.0384
170 | CAATTCAC | -0.0788
171 | AACTTTAG | -0.147
172 | CTGCATGC | -0.164

— paper PMC10668032
